This is an account of results in the supplement of paper PMC4604168 (melanoma cell lines).

This is one part of the list. Repeats are few or missing, and single values can be far off.
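Also: cells treated in 1,536-well plates, then fixed and DAPI-stained, with nuclei counted from automated high-throughput microscope images.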

In the test the test system is UACC257. Briefly: cell count relative to DMSO control; melanoma cells; higher = more viable cells. Particulars: library dose: standard library concentration; 72 h.
`Cn1cnc2c(F)c(Nc3ccc(Br)cc3Cl)c(C(=O)NOCCO)cc21` [selumetinib] + COc1cc2c(Oc3ccc4[nH]c(C)cc4c3F)ncnc2cc1OCCCN1CCCC1 [cediranib] (first compound 0.075 µM, partner dose 2 µM) gave a cell count of 107%.

On to `COc1cc([C@@H]2c3cc4c(cc3[C@@H](O[C@@H]3O[C@@H]5CO[C@@H](C)O[C@H]5[C@H](O)[C@H]3O)[C@H]3COC(=O)[C@H]23)OCO4)cc(OC)c1O` [etoposide] + CN(C)S(=O)(=O)c1ccc2c(c1)/C(=C/c1cc3c([nH]1)CCCC3)C(=O)N2 [SU6656] (first compound 0.1 µM, partner dose 2 µM), for which the cell count came out at 95.1%.

In the case of `COc1cc([C@@H]2c3cc4c(cc3[C@@H](O[C@@H]3O[C@@H]5CO[C@@H](C)O[C@H]5[C@H](O)[C@H]3O)[C@H]3COC(=O)[C@H]23)OCO4)cc(OC)c1O` [etoposide] + CCCS(=O)(=O)Nc1ccc(F)c(C(=O)c2c[nH]c3ncc(Cl)cc23)c1F [PLX4720] (first compound 0.1 µM, partner dose 0.4 µM), the cell count was found to be 87.3%.

Regarding `Cn1cnc2c(F)c(Nc3ccc(Br)cc3Cl)c(C(=O)NOCCO)cc21` [selumetinib] + CN(NC(=O)CC(=O)NN(C)C(=S)c1ccccc1)C(=S)c1ccccc1 [STA4783] (first compound 0.075 µM, partner dose 0.03 µM), the cell count is 83.3%.

Compound `CCN(CC)CCNC(=O)c1c(C)[nH]c(/C=C2\C(=O)Nc3ccc(F)cc32)c1C` [sunitinib] + O=C(CCCCCCC(=O)Nc1ccccc1)NO [vorinostat] (first compound 2 µM, partner dose 0.4 µM) yielded a cell count of 75.5%.

`COc1cc([C@@H]2c3cc4c(cc3[C@@H](O[C@@H]3O[C@@H]5CO[C@@H](C)O[C@H]5[C@H](O)[C@H]3O)[C@H]3COC(=O)[C@H]23)OCO4)cc(OC)c1O` [etoposide] + C[C@@H]1CCN(C(=O)CC#N)C[C@@H]1N(C)c1ncnc2[nH]ccc12 [CP690550] (first compound 0.1 µM, partner dose 5 µM) had a cell count of 91.8%.

`CCN(CC)CCNC(=O)c1c(C)[nH]c(/C=C2\C(=O)Nc3ccc(F)cc32)c1C` [sunitinib] + COc1cc(Nc2ncc(F)c(Nc3ccc4c(n3)NC(=O)C(C)(C)O4)n2)cc(OC)c1OC [Tamatinib] (first compound 2 µM, partner dose 2 µM) gave a cell count of 83.5%.

Consider `COc1cc([C@@H]2c3cc4c(cc3[C@@H](O[C@@H]3O[C@@H]5CO[C@@H](C)O[C@H]5[C@H](O)[C@H]3O)[C@H]3COC(=O)[C@H]23)OCO4)cc(OC)c1O` [etoposide] + OCCn1cc(-c2cnc3nnn(Cc4ccc5ncccc5c4)c3n2)cn1 [PF04217903] (first compound 0.1 µM, partner dose 5 µM), for which the cell count is 89.3%.

Take `C[C@]1(O)C[C@@H](c2nc(-c3ccc4ccc(-c5ccccc5)nc4c3)c3c(N)nccn32)C1` + CN(C)S(=O)(=O)c1ccc2c(c1)/C(=C/c1cc3c([nH]1)CCCC3)C(=O)N2 [SU6656] (first compound 2 µM, partner dose 2 µM): the cell count turned out to be 72.2%.

`C[C@]1(O)C[C@@H](c2nc(-c3ccc4ccc(-c5ccccc5)nc4c3)c3c(N)nccn32)C1` + COc1cc2c(Oc3ccc4[nH]c(C)cc4c3F)ncnc2cc1OCCCN1CCCC1 [cediranib] (first compound 2 µM, partner dose 2 µM) had a cell count of 94.6%.

`CCN(CC)CCNC(=O)c1c(C)[nH]c(/C=C2\C(=O)Nc3ccc(F)cc32)c1C` [sunitinib] + CO[C@@H]1[C@H](N(C)C(=O)c2ccccc2)C[C@H]2O[C@]1(C)n1c3ccccc3c3c4c(c5c6ccccc6n2c5c31)C(=O)NC4 [Midostaurin] (first compound 2 µM, partner dose 0.4 µM) came in with a cell count of 62.1%.

For `COc1cc([C@@H]2c3cc4c(cc3[C@@H](O[C@@H]3O[C@@H]5CO[C@@H](C)O[C@H]5[C@H](O)[C@H]3O)[C@H]3COC(=O)[C@H]23)OCO4)cc(OC)c1O` [etoposide] + CC(C)(C)c1cnc(CSc2cnc(NC(=O)C3CCNCC3)s2)o1 [SNS-032] (first compound 0.1 µM, partner dose 0.05 µM), the cell count turned out to be 106%.

Turning to `C[C@]1(O)C[C@@H](c2nc(-c3ccc4ccc(-c5ccccc5)nc4c3)c3c(N)nccn32)C1` + C=CCn1c(=O)c2cnc(Nc3ccc(N4CCN(C)CC4)cc3)nc2n1-c1cccc(C(C)(C)O)n1 [MK1775] (first compound 2 µM, partner dose 0.1 µM), the cell count amounted to 76.6%.

As to `COc1cc([C@@H]2c3cc4c(cc3[C@@H](O[C@@H]3O[C@@H]5CO[C@@H](C)O[C@H]5[C@H](O)[C@H]3O)[C@H]3COC(=O)[C@H]23)OCO4)cc(OC)c1O` [etoposide] + O=C(CCCCCCC(=O)Nc1ccccc1)NO [vorinostat] (first compound 0.1 µM, partner dose 0.4 µM), the cell count is 65.8%.

As to `COc1cc([C@@H]2c3cc4c(cc3[C@@H](O[C@@H]3O[C@@H]5CO[C@@H](C)O[C@H]5[C@H](O)[C@H]3O)[C@H]3COC(=O)[C@H]23)OCO4)cc(OC)c1O` [etoposide] + O=C(O)c1ccc(-c2c[nH]c3ncc(-c4ccccc4)cc23)cc1C1CCCC1 [GSK650394] (first compound 0.1 µM, partner dose 0.8 µM), the cell count came out at 85.2%.

On to `Cn1cnc2c(F)c(Nc3ccc(Br)cc3Cl)c(C(=O)NOCCO)cc21` [selumetinib] + Cc1ccc(NC(=O)c2cccc(N(C)C)c2)cc1NC(=O)c1ccc(O)cc1 [ZM336372] (first compound 0.075 µM, partner dose 10 µM), for which the cell count worked out at 92.1%.

As to `C[C@]1(O)C[C@@H](c2nc(-c3ccc4ccc(-c5ccccc5)nc4c3)c3c(N)nccn32)C1` + OCCn1cc(-c2cnc3nnn(Cc4ccc5ncccc5c4)c3n2)cn1 [PF04217903] (first compound 2 µM, partner dose 5 µM), the cell count amounted to 99.6%.

As for `CCN(CC)CCNC(=O)c1c(C)[nH]c(/C=C2\C(=O)Nc3ccc(F)cc32)c1C` [sunitinib] + CN(C)S(=O)(=O)c1ccc2c(c1)/C(=C/c1cc3c([nH]1)CCCC3)C(=O)N2 [SU6656] (first compound 2 µM, partner dose 2 µM), the cell count was found to be 61.8%.

`CCN(CC)CCNC(=O)c1c(C)[nH]c(/C=C2\C(=O)Nc3ccc(F)cc32)c1C` [sunitinib] + CC(C)(C)c1cnc(CSc2cnc(NC(=O)C3CCNCC3)s2)o1 [SNS-032] (first compound 2 µM, partner dose 0.05 µM) returned a cell count of 81.3%.

`Cn1cnc2c(F)c(Nc3ccc(Br)cc3Cl)c(C(=O)NOCCO)cc21` [selumetinib] + O=C(Nc1cccc(Cl)c1)Nc1ncc(CCNc2ncnc3ccsc23)s1 [SNS314] (first compound 0.075 µM, partner dose 0.004 µM) displayed a cell count of 77%.

Consider `COc1cc([C@@H]2c3cc4c(cc3[C@@H](O[C@@H]3O[C@@H]5CO[C@@H](C)O[C@H]5[C@H](O)[C@H]3O)[C@H]3COC(=O)[C@H]23)OCO4)cc(OC)c1O` [etoposide] + CC1(C)NC(=O)N(c2ccc([N+](=O)[O-])c(C(F)(F)F)c2)C1=O [nilutamide] (first compound 0.1 µM, partner dose 5 µM), for which the cell count came to 92.2%.
